Results from patent US20220000984A1 (JIANGSU GENSCIENCES, published 2022).

B1: GLP1-L1-Fc4-L2-STG3 (Fc fusion)
chain: HGEGTFTSDVSSYLEEQAAKEFIAWLVKGGGGGGGSGGGGSGGGGSA[human IgG4 Fc with S228P F234A L235A (EU numbers) not listed]GGGGSGGGGSLPETGGG
B2: GLP1-L1-Fc4-L2-STG3 crosslinked with 40 kDa PEG (Fc fusion)
chain: HGEGTFTSDVSSYLEEQAAKEFIAWLVKGGGGGGGSGGGGSGGGGSA[human IgG4 Fc with S228P F234A L235A (EU numbers) not listed]GGGGSGGGGSLPETGGGAA
modifications: 40 kDa PEG on the added C-terminal GGGAA (GGGAA-PEG joined by sortase A to the T of LPET)

Biological target: GLP-1 receptor (GLP-1R) on HEK293/CRE-Luc/GLP1R cells (UniProt P43220 24-463, limits assumed)
Test: cell-based or functional assay

Row | relative activity compared with dulaglutide (CRE-luciferase reporter, HEK293/CRE-Luc/GLP1R cells) [%] | Binder
1 | 112 | B1
2 | 21.5 | B2
